In paper PMC4336329 (PLoS ONE, 2015):
In all, about 310,000 compounds went through this assay and about 14,000 (4.5%) showed an effect of 50% or more. The effect is printed as a negative number. This is one part of the list.

Target: human ether-à-go-go-related gene (hERG) potassium channel (human, UniProt Q12809)
Test: primary screen, population patch clamp on CHO cells stably expressing hERG
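Also: peak tail current of the secondary pulse compared with the same well before compound.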

human ether-à-go-go-related gene (hERG) potassium channel, sequence (Q12809 whole entry, looked up): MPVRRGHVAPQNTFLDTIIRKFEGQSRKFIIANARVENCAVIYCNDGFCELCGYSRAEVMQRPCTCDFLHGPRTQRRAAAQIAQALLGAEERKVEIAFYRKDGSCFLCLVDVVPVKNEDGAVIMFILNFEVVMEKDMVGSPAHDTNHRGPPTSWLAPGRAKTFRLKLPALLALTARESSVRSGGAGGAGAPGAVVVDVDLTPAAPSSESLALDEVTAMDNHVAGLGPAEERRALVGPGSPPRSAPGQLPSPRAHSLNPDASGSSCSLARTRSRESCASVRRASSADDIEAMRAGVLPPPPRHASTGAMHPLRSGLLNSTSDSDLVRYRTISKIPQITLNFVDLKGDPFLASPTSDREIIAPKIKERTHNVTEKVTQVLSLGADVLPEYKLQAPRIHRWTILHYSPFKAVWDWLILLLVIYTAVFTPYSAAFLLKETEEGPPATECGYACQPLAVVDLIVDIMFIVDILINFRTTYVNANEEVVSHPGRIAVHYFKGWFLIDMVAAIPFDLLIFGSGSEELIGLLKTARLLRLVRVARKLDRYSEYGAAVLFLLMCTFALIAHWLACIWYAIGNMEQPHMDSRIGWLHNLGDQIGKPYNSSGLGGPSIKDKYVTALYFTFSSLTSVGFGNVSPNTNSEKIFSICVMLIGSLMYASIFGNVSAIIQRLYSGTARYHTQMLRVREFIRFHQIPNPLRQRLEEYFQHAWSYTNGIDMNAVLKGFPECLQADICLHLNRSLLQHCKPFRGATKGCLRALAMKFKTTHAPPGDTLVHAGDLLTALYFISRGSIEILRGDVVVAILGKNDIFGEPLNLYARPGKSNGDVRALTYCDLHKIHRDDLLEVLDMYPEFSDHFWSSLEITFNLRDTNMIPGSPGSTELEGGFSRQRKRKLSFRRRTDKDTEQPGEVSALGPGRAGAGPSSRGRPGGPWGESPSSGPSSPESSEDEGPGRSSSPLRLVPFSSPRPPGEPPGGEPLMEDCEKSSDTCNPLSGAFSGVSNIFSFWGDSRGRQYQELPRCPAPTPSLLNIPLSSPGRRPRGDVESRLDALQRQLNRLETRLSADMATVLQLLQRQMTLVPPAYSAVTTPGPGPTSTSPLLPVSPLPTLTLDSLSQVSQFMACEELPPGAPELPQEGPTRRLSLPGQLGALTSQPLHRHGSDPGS

SMILES | hERG current change (%, negative = inhibition) at 10uM
Cc1cc(/C=C2\C(=N)N3N=CSC3=NC2=O)c(C)n1Cc1ccccc1 | -2.17%
COCCCn1nnnc1SCC(=O)Nc1nc2ccccc2s1 | 6.93%
COc1cc(CN2CCCCCC2)cc(Br)c1O | 6.72%
CC1CCN(C(=O)COC(=O)/C=C/c2ccc(Br)o2)CC1 | -4.03%
CCOC(=O)c1c(NC(=O)CN2C(=O)NC3(CCCCCC3)C2=O)sc(C)c1-c1ccc(C)cc1 | 4.24%
O=C1OCC(c2ccccc2)=C1c1ccc(S(=O)(=O)N2CCOCC2)s1 | -9.86%
CCOC(=O)c1c(-c2ccccc2)oc2ccc(OCC(=O)O)cc12 | 4.02%
O=C(COc1ccc(Br)cc1)NCCNC(=O)c1cccnc1 | -14.8%
CC1CC(N(C(=O)c2ccco2)c2ccccc2)c2ccccc2N1C(=O)c1ccco1 (stereo not drawn) | -22.2%
Cc1ccc(N2CCN(S(=O)(=O)c3nnc(NC(=O)c4ccccc4)s3)CC2)cc1 | 22%
O=C1c2cc(S(=O)(=O)NCCO)ccc2-c2ccc(S(=O)(=O)NCCO)cc21 | -1.1%
Cc1cc(=O)oc2c1c(C)nn2-c1ccc(Cl)cc1 | 19.8%
COCc1c(C(=O)N2CCN(Cc3ccc(C#N)cc3)CC2)oc2ccccc12 | -70.2%
CC1(C)Cc2noc(N)c2C(C)(C)N1OC(=O)c1cccs1 | 6.58%
COc1cc(C(=O)NNC(=O)CN2C(=O)NC3(CCCC3)C2=O)cc(OC)c1OC | 3.38%
CCC(C(=O)NCc1ccco1)N(C(=O)CNS(=O)(=O)c1ccccc1)c1ccccc1C (stereo not drawn) | -7.72%
O=C(c1cccs1)N1CCN=C1SCc1ccc(Cl)cc1 | 6.12%
CN(C)C(=O)/C(=C/c1ccc(-c2cccc([N+](=O)[O-])c2)o1)NC(=O)c1ccccc1 | -21.3%
O=C(COC(=O)Cc1ccccc1[N+](=O)[O-])NCc1ccc(F)cc1 | -8.6%
COc1ccc(CNC(=O)CN(C(=O)c2csnn2)c2ccc(F)cc2)cc1 | -5.15%
CCCOc1ccc(Cl)cc1CNc1ccccc1 | 1.58%
COc1ccc(CN(Cc2cccn2C)C(=O)c2cc3cc(OC)ccc3[nH]2)cc1 | -8.11%
O=C(CCc1ccccc1)NC(=S)Nc1ccccc1[N+](=O)[O-] | -19.7%
COC(=O)Cc1c(C)c2ccc(OCC(=O)c3ccc(OC)c(OC)c3)cc2oc1=O | 16.5%
